Experimental data as given in a collection of fitness landscapes (doi:10.1016/j.celrep.2020.107928).
Over roughly 81,000 sequences, “one-hybrid fitness for binding parS DNA” has its median near -0.17; the highest 2% begin near 0.51. This is one part of the list.

B1: Caulobacter ParB omega fusion; a variant is named by its letters at X, in order, B8GW30 (parent)
chain: MESVVVGEPGMSEGRRGLGRGLSALLGEVDAAPAQAPGEQLGGSREAPIEILQRNPDQPRRTFREEDLEDLSNSIREKGVLQPILVRPSPDTAGEYQIVAGERAWRAAQRAGLKTVPIMVRELDDLAVLEIGIIENVQRADLNVLEEALSYKVLMEKFERTQENIAQTIGKSXSHVANXMRLLXLPDEVQSYLVSGELTAXHARAIAAAADPVALAKQIIEGGLSVRETEALARKAPNLSAGKSKGGRPPRVKDTDTQALESDLSSVLGLDVSIDHRGSTGTLTITYATLEQLDDLCNRLTRGI

Variants of: B1
Assay: one-hybrid fitness for binding parS DNA (scaled: cognate 1, non-cognate 0); higher = stronger binding
Details: with parS DNA site
Outline: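 In E. coli USO, a HIS3 reporter with its site placed 19 bp from the promoter was used to select Caulobacter ParB variants randomised at four specificity codons. Growth lasted 48 hours at 37°C on histidine-free M9 containing 0.1 mM IPTG and 5 mM 3-AT. Fitness was taken as the log change in variant-to-wild-type read ratio from Illumina sequencing of pre- and post-selection plasmids, rescaled between the non-cognate and cognate sites.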

Row | Variant | one-hybrid fitness for binding parS DNA
1 | CLRI | ≤ 0.2
2 | CLYA | ≤ 0.2
3 | ATEL | ≤ 0.2
4 | PCAI | ≤ 0.2
5 | PPVP | ≤ 0.2
6 | LGSS | ≤ 0.2
7 | TLHC | ≤ 0.2
8 | RELV | ≤ 0.2
9 | QVIW | ≤ 0.2
10 | KQCW | 0.321
11 | ILVA | ≤ 0.2
12 | ALEC | ≤ 0.2
13 | RVMP | ≤ 0.2
14 | MVMT | ≤ 0.2
15 | YAGT | ≤ 0.2
16 | SIKT | ≤ 0.2
17 | PNNT | ≤ 0.2
18 | QTRA | ≤ 0.2
19 | SNQL | ≤ 0.2
20 | GPKK | ≤ 0.2
21 | ALKD | ≤ 0.2
22 | WSES | ≤ 0.2
23 | IVGG | ≤ 0.2
24 | SDHE | ≤ 0.2

Row | Variant | one-hybrid fitness for binding parS DNA
25 | DGVG | ≤ 0.2
26 | EVTS | ≤ 0.2
27 | CYAL | ≤ 0.2
28 | ISFY | ≤ 0.2
29 | LCMM | ≤ 0.2
30 | TPMQ | ≤ 0.2
31 | VRQC | ≤ 0.2
32 | REYG | ≤ 0.2
33 | CNVL | ≤ 0.2
34 | SHCD | ≤ 0.2
35 | MHKR | ≤ 0.2
36 | KQPS | ≤ 0.2
37 | IGRL | ≤ 0.2
38 | RFQR | ≤ 0.2
39 | SQTA | ≤ 0.2
40 | QMII | ≤ 0.2
41 | GFRP | ≤ 0.2
42 | FNPS | ≤ 0.2
43 | HYVT | ≤ 0.2
44 | LTIG | ≤ 0.2
45 | KNHC | ≤ 0.2
46 | HTLP | ≤ 0.2
47 | EFSM | ≤ 0.2
48 | GVPT | ≤ 0.2

Row | Variant | one-hybrid fitness for binding parS DNA
49 | FTQM | ≤ 0.2
50 | YTPA | ≤ 0.2
51 | RCHQ | 0.223
52 | LMWW | ≤ 0.2
53 | LRYW | ≤ 0.2
54 | PCEF | ≤ 0.2
55 | DVRS | ≤ 0.2
56 | LKRC | ≤ 0.2
57 | VTAK | ≤ 0.2
58 | FQNT | ≤ 0.2
59 | LRDI | ≤ 0.2
60 | NSMR | ≤ 0.2
61 | DLME | ≤ 0.2
62 | QDKK | ≤ 0.2
63 | FRRS | ≤ 0.2
64 | EPNR | ≤ 0.2
65 | SRQN | ≤ 0.2
66 | QHEK | ≤ 0.2
67 | DVCG | ≤ 0.2
68 | MTST | ≤ 0.2
69 | WNTE | ≤ 0.2
70 | WRTA | ≤ 0.2
71 | PCFR | ≤ 0.2
72 | QAQD | ≤ 0.2

Row | Variant | one-hybrid fitness for binding parS DNA
73 | GEGP | ≤ 0.2
74 | RTVW | 0.218
75 | KVFF | ≤ 0.2
76 | NREL | ≤ 0.2
77 | LIHR | ≤ 0.2
78 | LKYG | ≤ 0.2
79 | IHQD | ≤ 0.2
80 | HMLG | ≤ 0.2
81 | GRKN | ≤ 0.2
82 | DIIC | ≤ 0.2
83 | QPGC | ≤ 0.2
84 | PVSF | ≤ 0.2
85 | KRKI | ≤ 0.2
86 | WSCG | ≤ 0.2
87 | CFIV | ≤ 0.2
88 | VYTG | ≤ 0.2
89 | PVLV | ≤ 0.2
90 | SSAA | ≤ 0.2
91 | HSPF | ≤ 0.2
92 | AEHI | ≤ 0.2
93 | ERTC | ≤ 0.2
94 | YPMR | ≤ 0.2
95 | MMAR | ≤ 0.2
96 | NVDA | ≤ 0.2

Row | Variant | one-hybrid fitness for binding parS DNA
97 | GQAL | ≤ 0.2
98 | TICR | ≤ 0.2
99 | DGWC | ≤ 0.2
100 | PILC | ≤ 0.2
101 | RAGE | ≤ 0.2
102 | QVRL | ≤ 0.2
103 | ATML | ≤ 0.2
104 | DHRM | ≤ 0.2
105 | TEWR | ≤ 0.2
106 | NPHG | ≤ 0.2
107 | RRAM | 0.271
108 | LEAS | ≤ 0.2
109 | TQHH | ≤ 0.2
110 | MVPK | ≤ 0.2
111 | HRHY | ≤ 0.2
112 | SNMC | ≤ 0.2
113 | HTMF | ≤ 0.2
114 | YGCT | ≤ 0.2
115 | EPRI | ≤ 0.2
116 | GYKT | ≤ 0.2
117 | PILL | ≤ 0.2
118 | RDKV | ≤ 0.2
119 | NASH | ≤ 0.2
120 | GPSV | ≤ 0.2

Row | Variant | one-hybrid fitness for binding parS DNA
121 | SKME | ≤ 0.2
122 | NAAD | ≤ 0.2
123 | FSKS | ≤ 0.2
124 | TRRA | ≤ 0.2
125 | SIKY | ≤ 0.2
126 | RFGY | 0.419
127 | VNCG | ≤ 0.2
128 | KRCS | ≤ 0.2
129 | PPHW | ≤ 0.2
130 | VHNM | ≤ 0.2
131 | WPRA | ≤ 0.2
132 | LYNL | ≤ 0.2
133 | QVWS | ≤ 0.2
134 | ERNL | ≤ 0.2
135 | LREC | ≤ 0.2
136 | SLHQ | ≤ 0.2
137 | SSPF | ≤ 0.2
138 | RLDV | ≤ 0.2
139 | ILFR | ≤ 0.2
140 | EVRE | ≤ 0.2
141 | NRHS | ≤ 0.2
142 | NTRD | ≤ 0.2
143 | PIDK | ≤ 0.2
144 | KKWS | ≤ 0.2

Row | Variant | one-hybrid fitness for binding parS DNA
145 | GAAC | ≤ 0.2
146 | EQGG | ≤ 0.2
147 | MEKM | ≤ 0.2
148 | VDGK | ≤ 0.2
149 | QKNH | ≤ 0.2
150 | RYYT | 0.876
151 | SALT | ≤ 0.2
152 | NCFW | ≤ 0.2
153 | CVDS | ≤ 0.2
154 | QDIV | ≤ 0.2
155 | HRNH | ≤ 0.2
156 | NIGI | ≤ 0.2
157 | KMIR | ≤ 0.2
158 | RSEQ | ≤ 0.2
159 | GYKF | ≤ 0.2
160 | AAAC | ≤ 0.2
161 | DNFS | ≤ 0.2
162 | RLSD | ≤ 0.2
163 | PRRD | ≤ 0.2
164 | TVCM | ≤ 0.2
165 | KNMC | ≤ 0.2
166 | HHIA | ≤ 0.2
167 | RFMV | ≤ 0.2
168 | FPIG | ≤ 0.2

Row | Variant | one-hybrid fitness for binding parS DNA
169 | EKVR | ≤ 0.2
170 | QAAS | ≤ 0.2
171 | SFHG | ≤ 0.2
172 | IGNF | ≤ 0.2
173 | VEHD | ≤ 0.2
174 | RLKS | 0.851
175 | RQRF | 0.247
176 | VTKC | ≤ 0.2
177 | PKTG | ≤ 0.2
178 | CMCY | ≤ 0.2
179 | WEGR | ≤ 0.2
180 | VLDL | ≤ 0.2
181 | SKKA | ≤ 0.2
182 | AFGT | ≤ 0.2
183 | YCLL | ≤ 0.2
184 | LRPN | ≤ 0.2
185 | MNVS | ≤ 0.2
186 | PMII | ≤ 0.2
187 | TFQR | ≤ 0.2
188 | PAVN | ≤ 0.2
189 | SKHC | ≤ 0.2
190 | HDLW | ≤ 0.2
191 | TSSM | ≤ 0.2
192 | LART | ≤ 0.2

Row | Variant | one-hybrid fitness for binding parS DNA
193 | VWTD | ≤ 0.2
194 | NLIL | ≤ 0.2
195 | CMRV | ≤ 0.2
196 | HCNC | ≤ 0.2
197 | HGAT | ≤ 0.2
198 | QKLT | ≤ 0.2
199 | SEPW | ≤ 0.2
200 | AKTD | ≤ 0.2
201 | CWKV | ≤ 0.2
202 | ACRD | ≤ 0.2
203 | SIRY | ≤ 0.2
204 | GLKR | ≤ 0.2
205 | RFIG | 0.685
206 | WSGS | ≤ 0.2
207 | HTRE | ≤ 0.2
208 | ANHF | ≤ 0.2
209 | RSVE | ≤ 0.2
210 | VVNS | ≤ 0.2
211 | RRYY | 0.28
212 | WRKT | ≤ 0.2
213 | QAHM | ≤ 0.2
214 | TWIC | ≤ 0.2
215 | YSKK | ≤ 0.2
216 | KIRV | ≤ 0.2

Row | Variant | one-hybrid fitness for binding parS DNA
217 | KTTM | ≤ 0.2
218 | SCQG | ≤ 0.2
219 | ARPM | ≤ 0.2
220 | MTNS | ≤ 0.2
221 | SWVG | ≤ 0.2
222 | LQDT | ≤ 0.2
223 | QSID | ≤ 0.2
224 | AVLS | ≤ 0.2
225 | KACL | ≤ 0.2
226 | FTDF | ≤ 0.2
227 | QPIE | ≤ 0.2
228 | ITPG | ≤ 0.2
229 | MRLI | ≤ 0.2
230 | PCTH | ≤ 0.2
231 | NSHC | ≤ 0.2
232 | ATWW | ≤ 0.2
233 | QGEL | ≤ 0.2
234 | DPST | ≤ 0.2
235 | RHSD | ≤ 0.2
236 | HTAR | ≤ 0.2
237 | VLYG | ≤ 0.2
238 | QNPW | ≤ 0.2
239 | HALI | ≤ 0.2
240 | LKKE | ≤ 0.2

Row | Variant | one-hybrid fitness for binding parS DNA
241 | VTDV | ≤ 0.2
242 | PTRT | ≤ 0.2
243 | ASDT | ≤ 0.2
244 | PIRD | ≤ 0.2
245 | EMIY | ≤ 0.2
246 | TLNL | ≤ 0.2
247 | YPLW | ≤ 0.2
248 | TPMG | ≤ 0.2
249 | SKLW | ≤ 0.2
250 | CAER | ≤ 0.2
251 | SFWS | ≤ 0.2
252 | DYTG | ≤ 0.2
253 | SQDG | ≤ 0.2
254 | QSMM | ≤ 0.2
255 | RVML | ≤ 0.2
256 | NAPG | ≤ 0.2
257 | KIPM | ≤ 0.2
258 | KTNC | ≤ 0.2
259 | TYMG | ≤ 0.2
260 | QRYQ | ≤ 0.2
261 | NMNT | ≤ 0.2
262 | MSER | ≤ 0.2
263 | PHVT | ≤ 0.2
264 | DIWC | ≤ 0.2

Row | Variant | one-hybrid fitness for binding parS DNA
265 | SPKD | ≤ 0.2
266 | PKDL | ≤ 0.2
267 | GADS | ≤ 0.2
268 | YELE | ≤ 0.2
269 | TPYS | ≤ 0.2
270 | LVER | ≤ 0.2
271 | KLVT | ≤ 0.2
272 | EGQW | ≤ 0.2
273 | WNVY | ≤ 0.2
274 | FQLM | ≤ 0.2
275 | NGMT | ≤ 0.2
276 | QPKC | ≤ 0.2
277 | WAAC | ≤ 0.2
278 | QSQM | ≤ 0.2
279 | NKVV | ≤ 0.2
280 | NAVL | ≤ 0.2
281 | CITK | ≤ 0.2
282 | PWTK | ≤ 0.2
283 | TMVV | ≤ 0.2
284 | EFLG | ≤ 0.2
285 | QTQM | ≤ 0.2
286 | VGQS | ≤ 0.2
287 | SWLK | ≤ 0.2
288 | QLHH | ≤ 0.2

Row | Variant | one-hybrid fitness for binding parS DNA
289 | LGCR | ≤ 0.2
290 | NRFG | ≤ 0.2
291 | PDCY | ≤ 0.2
292 | QWCR | ≤ 0.2
293 | ILDY | ≤ 0.2
294 | AMAL | ≤ 0.2
295 | AACF | ≤ 0.2
296 | QQRE | ≤ 0.2
297 | TLQC | ≤ 0.2
298 | VFPI | ≤ 0.2
299 | PATR | ≤ 0.2
300 | FAPF | ≤ 0.2
301 | TIHL | ≤ 0.2
302 | NNVR | ≤ 0.2
303 | SSVQ | ≤ 0.2
304 | RTSI | ≤ 0.2
305 | KRHV | ≤ 0.2
306 | DQDV | ≤ 0.2
